This is one part of the list.
tested on: T1, Caupolican (Caup) homeodomain DNA-binding domain; assay: PBM E-score (8-mer, recovered from the published 9-mer minima) (E-score (dimensionless, -0.5 to 0.5)); Drosophila protein; higher = stronger relative binding preference, active = 0.31 or more
T1 sequence: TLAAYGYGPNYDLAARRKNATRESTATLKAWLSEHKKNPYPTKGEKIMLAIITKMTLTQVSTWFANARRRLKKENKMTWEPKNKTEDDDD
Summary of the method: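 Caup's homeodomain DNA-binding domain (residues 214-303) was produced by in vitro transcription and translation and applied at 100 nM to custom-designed protein binding microarrays. Each value is an enrichment score giving relative binding preference for a short DNA word; higher means stronger. Published 9-mer scores were the minimum of their two constituent 8-mer scores, and the 8-mer values were recovered from those minima. A cutoff of 0.31 marks candidate binding sequences.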

Sequence | PBM E-score
CCCTGCGG | inactive: -0.29
CGCAGACG | inactive: -0.103
AGTCCTCA | inactive: -0.108
ATCCTGCA | ≥ 0.0523
CAAGTACG | inactive: 0.116
CATAGGTC | inactive: 0.0256
GGGCCCCA | inactive: -0.304
AGAAGCCC | inactive: -0.196
AAGGTCCA | inactive: -0.0688
GTGTTGAA | inactive: 0.126
ATTGAATG | inactive: 0.137
GACCGATC | inactive: -0.0828
ATTCGCGC | inactive: -0.00589
CCGTCGTC | inactive: -0.127
GGGCCACA | inactive: -0.194
CCGCGCAG | inactive: -0.218
CCGTATCG | inactive: -0.11
CGCTTAAC | inactive: 0.0619
CAGACGAG | inactive: -0.0333
CCCTACTC | inactive: -0.0728
AGTGACAC | inactive: 0.198
AATCTACA | inactive: 0.27
GAATCACA | inactive: 0.063
CCCCCTTA | inactive: -0.253
AGCTTGAC | inactive: 0.0291

Sequence | PBM E-score
AGCGGAGG | inactive: -0.189
CTTGGCTC | inactive: -0.191
AACCTATC | inactive: 0.0111
AAAGCTCT | inactive: -0.225
ACGAAGGG | inactive: -0.153
TACTTTCA | inactive: 0.0535
CCGTCACA | inactive: 0.00306
CAATCGTC | inactive: 0.0634
CTTACATA | inactive: 0.288
AGATACCG | inactive: -0.0038
ACGTAGGC | inactive: -0.111
ACCTTAGG | inactive: -0.159
GGCGTTAC | inactive: -0.0347
AGTCGTGG | inactive: -0.0638
GAACAAAC | inactive: 0.273
ATACACAC | inactive: 0.256
TTACAGAA | inactive: 0.151
GTATCACA | inactive: 0.198
AACATCAC | inactive: 0.267
GGAATCGA | inactive: -0.117
CAAATTCC | inactive: 0.12
CCATAGAA | inactive: 0.0244
CACGGTTA | inactive: 0.0894
AGTACCAA | inactive: 0.128
CCGGGCCC | ≥ -0.179

Sequence | PBM E-score
AGCACGTC | inactive: -0.0129
ACGGCGGA | ≥ -0.134
CAAAGGGA | inactive: -0.00949
TGCGTTAA | inactive: -0.042
ACTTACGG | inactive: 0.00657
ATGAGGCC | inactive: -0.19
GCTGTGGA | inactive: -0.0809
AAATGGCC | inactive: -0.154
ACAGACGG | inactive: -0.0442
CTTGACTC | inactive: -0.0832
GGTCTGAA | inactive: -0.0713
AGCCGATA | ≥ 0.0053
TGATCTAA | inactive: 0.0617
GTAGAAAA | inactive: 0.0328
CGGATGTA | inactive: 0.221
AGGAGGCA | inactive: -0.256
TTGGTAAA | inactive: 0.1
GAATCGCC | inactive: -0.205
CCCGTGAA | inactive: -0.0554
AGGCTTCC | ≥ -0.117
CAAGAATC | inactive: 0.122
CGCAAAAA | inactive: 0.0226
TGCTGACA | inactive: 0.234
AAATATAT | ≥ 0.253
AACAACCG | inactive: 0.235

Sequence | PBM E-score
ATCAACGA | inactive: 0.021
TATAATCA | inactive: 0.208
CAGGACAC | inactive: 0.117
GACAATGA | inactive: 0.0915
ATCATATC | inactive: 0.0963
ATAGAGAT | ≥ 0.113
GAGTGCCA | inactive: -0.119
GCAGCCGA | inactive: -0.166
GCACGAAA | inactive: 0.102
GCGCTGTA | inactive: 0.0576
ATTCGTGA | inactive: 0.114
ACATTGCG | inactive: 0.125
AACACCCA | inactive: 0.091
CGCTACTA | inactive: 0.0331
GCCAAGTA | inactive: -0.0558
TCTAGCCA | inactive: -0.0519
CCCTTCGC | inactive: -0.184
ACTCCGGG | inactive: -0.0776
GGGGATAA | inactive: 0.0174
AAAGCAAC | inactive: 0.0317
AACAGTCG | inactive: -0.00715
AAGCACAG | inactive: 0.0525
AACATTAT | inactive: 0.29
CAGATGTA | inactive: 0.247
AAATGTAT | inactive: 0.241

Sequence | PBM E-score
GGTCTTCA | inactive: -0.145
CAAGCCGA | inactive: -0.0158
ACCCCACT | inactive: -0.183
CATATAAC | inactive: 0.211
CGGGTTCA | inactive: -0.0657
AGTCCACA | inactive: -0.0273
AGCGCCTC | inactive: -0.235
CACTTCCA | ≥ 0.0199
ACAGTATG | inactive: 0.177
AACCGAGC | inactive: -0.116
ATGGCCTC | inactive: -0.152
AGTGCAAG | inactive: 0.0613
AGCGAGTC | inactive: -0.131
TACATAAA | active: 0.329
CACAATTC | inactive: 0.0726
GAGCGCCC | inactive: -0.279
CCTAGGGA | inactive: -0.0969
CGGCCGAG | inactive: -0.222
CCCCAAGC | inactive: -0.111
TCAATAGA | inactive: 0.0432
ACAACGCC | inactive: 0.12
GAGAATGC | inactive: 0.0148
GCGTGAAA | inactive: -0.0114
ACTCCAAT | inactive: -0.0022
GAGTGTGC | inactive: -0.0841

Sequence | PBM E-score
ATGACTGC | inactive: 0.00972
CTGAACTC | inactive: -0.0888
TCCTCCAA | inactive: -0.118
ATGACTTG | inactive: 0.0173
ACTATGTA | active: 0.312
GTGCGATA | inactive: -0.0187
CTGGCAAA | inactive: -0.0982
ATCTTCGA | inactive: 0.0402
AATACCCG | inactive: 0.00706
GCCCACGA | inactive: -0.222
ACTAAATG | inactive: 0.0694
GAGTAAAA | inactive: 0.0592
AGATGTCC | inactive: 0.234
AAAACCGG | inactive: -0.0173
AGTGCCAC | inactive: -0.0664
AAGCTGGG | inactive: -0.0993
GCGTGCAA | inactive: -0.00418
CAGGAAGC | inactive: -0.008
AAGTGCCG | inactive: -0.0869
CTCCATAA | inactive: 0.00322
CTAAGACC | inactive: -0.0468
AAAAAACC | inactive: 0.0838
TGGGACCA | inactive: -0.074
AGAGCCAA | inactive: -0.0447
GCTGGACA | inactive: 0.0811

Sequence | PBM E-score
AGTCTCCC | inactive: -0.0964
AGCGGACG | inactive: -0.236
CCGCGAGG | inactive: -0.255
CTCTTCGA | inactive: 0.0132
CCCTTCCC | inactive: -0.179
GCCTCCTA | inactive: -0.157
TCAATTCA | inactive: 0.0705
GGGCGAGA | inactive: -0.203
AGCTATAT | inactive: 0.0597
CGCTGAAA | inactive: -0.117
CATATGAG | inactive: 0.0984
GTAGGGAC | inactive: -0.0404
GAGGCGGC | inactive: -0.269
ACTGGTGC | inactive: 0.0345
TAGCCTAA | inactive: -0.0114
ATCCGAAA | inactive: -0.0583
ACCAAGAC | inactive: 0.0293
GTACGGTA | inactive: 0.0328
GGCAGGAA | inactive: -0.0697
TAGTGAGA | inactive: -0.00666
AACTCACG | inactive: -0.0141
GGAGTCCC | inactive: -0.176
AGTGGTCG | inactive: 0.0104
TAGTTCAA | inactive: 0.0464
CCTATACG | inactive: -0.113

Sequence | PBM E-score
ATGGAGCG | inactive: -0.0837
ATCTAACA | inactive: 0.244
CCAACGGC | inactive: -0.228
AAAAAATG | inactive: 0.0978
GTTATAGA | inactive: 0.217
CGGCGGTA | inactive: -0.0433
GGGAAGGA | inactive: -0.134
AAGATCTA | inactive: -0.0189
AACGTCCA | inactive: -0.0088
GCGGCTGA | inactive: -0.214
TCCGCAAA | inactive: -0.0879
CGGATTAG | inactive: 0.0107
ATCGGACA | inactive: 0.199
ACCCCAAG | inactive: -0.166
CGGAAGCA | inactive: -0.0328
ATTGGCGG | inactive: -0.141
CCCGGTGC | inactive: -0.303
CCCTATAC | inactive: -0.1
CGTGAATA | inactive: 0.133
GACCTTAC | inactive: -0.0414
CATATATC | inactive: 0.14
AAGTACCC | inactive: -0.0126
CCAACAGC | inactive: -0.0623
GAGGCGGA | inactive: -0.268
ATCTGGCG | inactive: -0.0594

Sequence | PBM E-score
CCTGTTAG | inactive: 0.114
ACTCGTAA | inactive: 0.117
TGGTGACA | inactive: 0.266
CCAGACAG | inactive: -0.00369
AGGTGTAA | inactive: 0.2
ATCTCTGG | inactive: -0.00282
CGCTGGTC | inactive: -0.179
GATCCTAC | inactive: -0.00525
CAAAGTGC | inactive: -0.0432
CGCCACAA | inactive: -0.05
ACTCCCCT | inactive: -0.187
CATAGTAA | inactive: 0.228
CCTTTGAA | inactive: -0.0192
ACGGGGGC | inactive: -0.283
CGTGATTC | inactive: 0.0106
TCGCCACA | ≥ -0.0334
AAGGTACT | inactive: 0.117
ACTATCAC | inactive: 0.0593
GGGGCCGA | inactive: -0.314
TAGATCCA | inactive: 0.0205
CTGTGGCA | inactive: -0.0298
GGACCGAC | inactive: -0.123
CACAGTGG | inactive: -0.0244

Reference: the supplement of paper PMC3724861
